The source of these data is patent US20080261891A1, “COMPOSITIONS AND METHODS FOR USING SYRINGOPEPTIN 25A AND RHAMNOLIPIDS” (Utah State University, priority 2007, published 2008).

Where a SMILES comes first, the peptide text is derived from it. Bridges are numbered along the chain shown (N, C = ends). [ ]: non-standard residue; d: D form. The star is where a group is joined. ξ: configuration not given here. Decanoyl(3ξ-OH) = CCCCCCCC(O)CC(=O)*; Dab = NCC[CH](N)C(=O)O; Dhb = C/C=C(\N)C(=O)O

This assay deals with yeast: Brettonomyces bruxellensis, Candida vini, Pichia fermentans, Saccharomyces luduigi, Metschinikowia puicherrima, Kloeckera apiculata. The assay is classed as cell-based. The following applies: any strain of yeast tested; data not shown.

Take `C/C=C(\NC(=O)C(C)NC(=O)C(C)NC(=O)C(CC(C)C)NC(=O)C(NC(=O)C(C)NC(=O)C(C)NC(=O)C(NC(=O)C1CCCN1C(=O)/C(=C/C)NC(=O)CC(O)CCCCCCC)C(C)C)C(C)C)C(=O)NC(C(=O)N/C(=C\C)C(=O)NC(C)C(=O)NC(C(=O)NC(C)C(=O)NC(C)C(=O)N/C(=C\C)C(=O)NC1C(=O)NC(CO)C(=O)NC(C)C(=O)NC(C(C)C)C(=O)NC(C)C(=O)NC(CCN)C(=O)NC(CCN)C(=O)NC(Cc2ccc(O)cc2)C(=O)OC1C)C(C)C)C(C)C` (stereo not shown) [SP 25A, syringopeptin 25A] ({Decanoyl(3ξ-OH)}-[Dhb]PVAAVLAA[Dhb]V[Dhb]AVAA[Dhb]TSAVA[Dab][Dab]Y; ester 18-C; configuration not given here): the “growth inhibition of yeast” value is recorded as “did not inhibit the growth”.
